Test results as given in PubChem BioAssay.
The shares of active, inactive and inconclusive entries below differ from those in the screen. Activity calls are given as the source filed them.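 Rule for the calls: active = viability at or below 30% in both replicate assays; inconclusive = viability at or below 30% in just one of the two assays; inactive = the rest.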

Assay: HUVEC growth inhibition – cell-based, human, primary screen (AID 575);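 note: 100% = median of untreated cell wells with 0.1% DMSO on each plate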
Conditions: HUVEC proliferation, CellTiter-Glo luminescence, 72 h; at 10 µM; active compounds read low
How it was run: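 material = primary HUVEC, no more than 12 passages | input = 1250 cells per well | controls = vehicle and MePR control wells | measured by = CTG luminescence | times = 72 h compound incubation | format = collagen-coated 384-well format | read-out = % viability vs DMSO wells | doses = single 10 µM dose, 0.1% DMSO, from 5x medium stock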

Compound | viability
NC(=O)c1cc(-c2ccccc2)nc(N2CCOCC2)n1 | inconclusive: 44.6%
CCOc1cc(NC(=O)c2ccco2)c(OCC)cc1NC(=O)CCc1ccc(OC)cc1 | inconclusive: 39.8%
O=C(O)c1ccc2c3c(ncnc13)-c1ccccc1C2=O | inconclusive: 33.5%
CCCCc1c(O)nc(SCC(=O)c2ccccc2)[nH]c1=O | inactive: 89%
CCOc1nc(-c2ccccc2O)nc2ccccc12 | inactive: 108%
O=C(CSc1nnc(-c2ccncc2)o1)Oc1ccccc1 | inactive: 101%
CCOC(=O)c1cnc(-n2nc(C)cc2C)nc1NC(C)c1ccccc1 (stereo unspecified) | inconclusive: 38.7%
CCOC(=O)c1cc(-c2ccc3c(c2)OCO3)nc2onc(C)c12 | inconclusive: 34.9%
CCC(=O)Oc1ccc(C(CC)C(CC)c2ccc(OC(=O)CC)cc2)cc1 (stereo unspecified) | inconclusive: 28.4%
C(=C\c1ccccc1)/CSc1nnc(-c2ccccn2)n1Cc1ccco1 | inconclusive: 31.7%
Nc1ncnc2oc(-c3ccco3)c(-c3ccco3)c12 | inconclusive: 30.1%
Cc1ccc(-n2ncc(C(=O)N3CCc4ccccc4C3)c2NC(=O)c2ccco2)cc1C | inactive: 83.6%
O=C(Cn1nc(-c2ccc(Cl)cc2)ccc1=O)NCCCN1CCN(Cc2ccccc2)CC1 | inconclusive: 32.1%
CC(=O)n1cc(-c2ccncc2)c2ccccc21 | inconclusive: 40.7%
Clc1ccc(Cl)c(-c2nn3c(COc4ccccc4)nnc3s2)c1 | inconclusive: 35.2%
Cc1nnc(SC(=O)N2c3ccccc3Sc3ccccc32)s1 | active: 13.2%
Oc1c(Cl)cc(Cl)c2c1NCCC2 | inconclusive: 46.2%
CN1CCN(c2oc(COc3ccc(-c4ccccc4)cc3)nc2C#N)CC1 | inactive: 66.3%
CN1CCC(NC(=O)c2cccs2)CC1 | inactive: 84.7%
CO[C@H]1C[C@@H]2CC[C@@H](C)[C@@](O)(O2)C(=O)C(=O)N2CCCC[C@H]2C(=O)O[C@H]([C@H](C)C[C@@H]2CC[C@@H](O)[C@H](OC)C2)CC(=O)[C@H](C)C=C(C)[C@@H](O)[C@@H](OC)C(=O)[C@H](C)C[C@H](C)C=CC=CC=C1C | inconclusive: 35.8%
COc1cc2c(N3CCOCC3)cc(O)c(CC(=O)Nc3ccccc3)c2cc1OC | inconclusive: 46.5%
Cc1cc(C)c(C#N)c(SCc2[nH]nc3c2C(c2ccccc2)C(C#N)=C(N)O3)n1 (stereo unspecified) | inactive: 85.3%
CCOc1ccc(-c2cn(S(=O)(=O)c3cccc4nsnc34)nc2N)cc1 | inactive: 94.8%
CCOC(=O)c1cnn(-c2ncnc3c2cnn3Cc2ccccc2)c1N | inconclusive: 47.1%
O=C(O)C1C2C=CC(C3CC23)C1C(=O)NCCc1ccccc1 (stereo unspecified) | inactive: 89.7%
CCc1ccc2oc(-c3cc(N)ccc3Cl)nc2c1 | inconclusive: 32.1%
